From ChEMBL document CHEMBL1201862, “PubChem BioAssay data set” (2004)

The molecules below were run on NCI-H322M (assay: NCI tumour cell line growth inhibition, 48 h).

Structure (SMILES)	GI50
O=S1(=O)CCN(Cc2ccccn2)CC1	inactive: > 100 µM
O=C(O)CN1C(=O)CN=C(c2ccccn2)c2cc(Cl)ccc21	inactive: > 100 µM
Cc1cccc(NC(=O)CSc2nnc(Cc3ccccc3)o2)c1	inactive: > 100 µM
OCc1c(-c2cccc3ccccc23)sc(-c2cccc3ccccc23)c1CO	inactive: 15.3 µM
CCOC(=O)c1nc2ccc(C(F)(F)F)cc2nc1Oc1cc(OC)cc(OC)c1	inactive: > 100 µM
O=C1N=C2SC=C(NC(=S)Nc3ccccc3)N2NC12c1ccccc1-c1ccccc12	inactive: > 10 µM
CC(C)(C)c1cc(C(C)(C)C)c2sc(=O)oc2c1O	inactive: 16 µM
CC1C2(C)OC(=N)C(C#N)(C(c3ccco3)O2)C1(C#N)C#N (centres undefined)	inactive: > 100 µM
Cc1nc(N)c(N2CCNCC2)c(O)n1	inactive: > 100 µM
COc1ccc(-c2nnc(CCCCCCCCc3nnc(-c4ccc(OC)cc4)n3N)n2N)cc1	inactive: > 100 µM
[N-]=[N+]=Nc1ccc(NCCCCCC(=O)ON2C(=O)CCC2=O)c([N+](=O)[O-])c1	inactive: > 100 µM
COc1ccc(C(=O)C(c2ccc(OC)cc2)C2C(=O)Oc3ccccc32)cc1 (centres undefined)	inactive: > 10 µM
CCOC(=O)C(=O)CC(=O)C1=C(c2ccccc2OC)CC(c2cccs2)=CC1=O	inactive: 84.5 µM
Cc1ccc(-c2cc(N)n(-c3nc4c(c(=O)n(C)c(=O)n4C)n3C)n2)cc1	inactive: > 100 µM
Nn1c(=S)[nH]nc(/C=C/c2c(O)ccc3ccccc23)c1=O	inactive: 5.5 µM
O=C(O)c1ccc([C@@H]2C(=O)N(O)[C@@H]3C=CC[C@@H]32)cc1	inactive: > 100 µM
COc1ccc(C2=NNC(=O)c3ccccc3N2c2nc(-c3cccs3)nc3cc(OC)c(OC)cc23)cc1	inactive: 8.09 µM
COc1cc(Nc2cnc3ccc(C(F)(F)F)cc3n2)cc(OC)c1OC	inactive: > 100 µM
S=C1OC2CCCC[C@H]2O1 (some centres undefined)	inactive: > 100 µM
N=C(N)SCc1nc(-c2ccc(Cl)cc2)no1	inactive: 26.5 µM
O=C(c1ccc(Cl)cc1)N(C(=S)N1CCN(c2ccccn2)CC1)c1ccccc1	inactive: > 100 µM
Cc1ccc(S(=O)(=O)N2C[C@@H]3CC[C@]4(CO[Si](C)(C)C(C)(C)C)N[C@@H](c5ccccc5)[C@H]2[C@H]34)cc1	inactive: 39.4 µM
[O-][S+]1c2ccccc2N=C(c2cccc3ccccc23)CC1c1cccc2ccccc12 (centres undefined)	inactive: 15.6 µM
Cn1sc2ccccc2c1=S	inactive: 20.5 µM

Structure (SMILES)	GI50
Sc1nnc(-c2ccccc2)n1/N=C\c1ccc(-c2ccc(Cl)cc2)o1	inactive: > 100 µM
OC1(C(Sc2ccccc2)Sc2ccccc2)CCCCCC1	inactive: 39.1 µM
c1cc2c(cc1[C@@H]1OC[C@@H]3[C@H]1CO[C@H]3c1ccc3c(c1)OCO3)OCO2	inactive: 75.9 µM
Cc1cc(C)c2c(=O)cc(-c3ccccc3)[nH]c2c1	inactive: 3.38 µM
CC[C@@]1(O)C[C@H](OC2CC(N(C)C)C(OC3CC(O)C(OC4CCC(=O)C(C)O4)C(C)O3)C(C)O2)c2c(cc3c(c2O)C(=O)c2c(O)ccc(O)c2C3=O)[C@H]1C(=O)OC (some centres undefined)	active: 0.00113 µM
CCc1ccccc1N1C(=O)C(=O)C(c2nc3ccccc3s2)C(=O)C1=O	inactive: > 100 µM
CCCCCCCC/C=C\CCCCCCCC(=O)NCCN(CCN)C(=O)CCCCCCC/C=C\CCCCCCCC	inactive: > 100 µM
C/C(=N/O)C1CC=C(S(=O)(=O)c2ccccc2)C1 (centres undefined)	inactive: > 100 µM
COc1ccc(/N=c2\ssc3c(=S)ssc23)cc1	inactive: > 100 µM
CC(=O)OCC1=C(C(=O)O)C(c2ccc3c(c2)OCO3)c2cc3c(cc2O1)OCO3 (centres undefined)	inactive: > 100 µM
CC(OC(=O)C(CC(=O)OC(C)(C)C)NC(=O)OC(C)(C)C)C(=O)OCc1ccccc1 (centres undefined)	inactive: > 100 µM
CC1(C)OC(COCCOCCCCCO)C(COCCOCCCCCO)O1 (centres undefined)	inactive: > 100 µM
CCCCCCCCCCCCCCC1OC(=O)c2ccccc21 (centres undefined)	inactive: > 100 µM
Cn1c2ccc3cc2c(=S)c2cc(ccc21)OCCOCCOCCOCCOCCOCCO3	inactive: > 10 µM
Cc1cc(C)nc(NS(=O)(=O)c2ccc(NC(=O)c3cccc4c(=O)c5ccccc5[nH]c34)cc2)n1	inactive: 22.2 µM
CC[S+]1C2=C(CC(C)(C)CC2=O)[N-]c2ccccc21 (centres undefined)	inactive: > 100 µM
NS(=O)(=O)c1nnc(/N=C(/CCC(=O)O)C(=O)O)s1	inactive: > 100 µM
CCOP(=O)(OCC)/C(C#N)=C/c1c[nH]c2ccccc12	inactive: > 100 µM
CC1CN=C(Nc2cccc(C(F)(F)F)c2)S1 (centres undefined)	inactive: 56.1 µM
CC1OC=CC(=O)C1O (centres undefined)	inactive: > 100 µM
CC1COC(C)(C)P(=O)(c2ccccc2)C1 (centres undefined)	inactive: > 100 µM
CCCCCCCCCCCCCCCC(=O)OCC1OC(OC)C2NP(=O)(N(CCCl)CCCl)OC1C2O (centres undefined)	inactive: 40.5 µM
Cn1cnc([N+](=O)[O-])c1Sc1nnc(-c2ccc(Cl)cc2)n1C	inactive: 37.2 µM
Cc1ccc(-c2cc(-c3ccc(Cl)cc3)nc(/N=C3\C(=O)N(CN4CCOCC4)c4ccc(Cl)cc43)n2)cc1	inactive: 26.1 µM

Structure (SMILES)	GI50
CC(=O)NC(CC(C)C)C(=O)NC(Cc1ccccc1)C(=S)N1CCCC1 (centres undefined)	inactive: > 100 µM
CCOC(=O)C1=C(C)N(Cc2ccccc2)C2(O)C(OC)CC(=O)C3C(=O)N(c4ccccc4)C(=O)C132 (centres undefined)	inactive: 15.3 µM
COC(=O)C1CCC(C)CC1=O (centres undefined)	inactive: > 100 µM
Cc1cccc(C)c1NC(=O)C(=O)Cc1nc2ccccc2s1	inactive: > 100 µM
CCCCCC/C=C\CCCCCCCCCC1=C(CN2CCN(C)CC2)C(=O)C=C(OC)C1=O	inactive: 14.5 µM
CC1(C)O[C@H]2Cn3c(c(C#N)c4ccccc43)[C@H]2O1	inactive: > 100 µM
N#CC12CC3=C(N=C1NC1=C(CCc4ccccc41)C2)c1ccccc1CC3 (centres undefined)	inactive: 3.84 µM
CC/C(C)=C1\CCC(CN2CCOCC2)C1=O (centres undefined)	inactive: 67.1 µM
COC1C=CC23c4cc5c(cc4C(O)OC2CN(C)C3C1)OCO5 (centres undefined)	inactive: 2.49 µM
C[C@]12CCC(=O)C=C1CC[C@@H]1C2CC[C@@]2(C)C1CC[C@@H]2OC(=O)C12OC1CCC2=O (some centres undefined)	inactive: 26.2 µM
CC(=O)OCC1OC(n2ncc(=O)[nH]c2=O)C(OC(C)=O)C1OC(C)=O (centres undefined)	inactive: 62.8 µM
COc1cc(OC)c2nc(C)c3c(c2c1)NCC3	inactive: 6.07 µM
NC(=O)N/N=C/C(=C/Nc1ccccc1)[N+](=O)[O-]	inactive: > 100 µM
CO[C@@H](c1ccccc1)[C@H](O)[C@](O)(c1ccccc1)P(=O)(OC)OC	inactive: > 100 µM
CCOC(=O)c1cn2c(n1)sc1cc(OC)ccc12	inactive: 70 µM
CCOC(=O)CC1(Cc2ccc(OCc3ccccc3)cc2)C(=O)OC(c2ccccc2)N1C(=O)c1ccccc1 (centres undefined)	inactive: > 100 µM
Cc1ccc(S(=O)(=O)NC(=O)Nc2cc(Cl)c(S(N)(=O)=O)cc2S(N)(=O)=O)cc1	inactive: > 100 µM
CCOC(=O)COS(=O)(=O)C(F)(F)F	inactive: > 100 µM
COc1ccccc1N1C(=O)C2c3[nH]c4ccccc4c3C3CCC(C(C)(C)C)CC3C2C1=O (centres undefined)	inactive: > 100 µM
COc1cc(/C=C2\C[C@H]3[C@@H]4CC=C5C[C@@H](N6CCCC6)CC[C@]5(C)[C@H]4CC[C@]3(C)[C@H]2OC(C)=O)cc(OC)c1OC	inactive: 15.4 µM
CN(C)/C=N\c1ccn(CCO)c(=O)n1	inactive: > 100 µM
CC(C)(C)c1cc(/C=C2/NC(=O)NC2=O)cc(C(C)(C)C)c1O	inactive: 15.8 µM
C/C=C1\CN2CCC34c5ccccc5N(C)C35OCC4(C(=O)OC)C1CC25 (centres undefined)	inactive: 50 µM
O=S(=O)(/N=C(\NO)Nc1ccc(Cl)cc1)c1ccc(-c2ccccn2)s1	inactive: > 100 µM

Structure (SMILES)	GI50
CC(C)C12CCC3(CCC4C(C)(C(=O)O)CCCC4(C)C3C1)C(CN)C2 (centres undefined)	inactive: 48.5 µM
COc1cc2c(c(OC)c1OC)C(=O)[C@H](Br)[C@H]2NC(=O)NCCCl	inactive: 91.6 µM
CC[C@@H](/C=C\CCC1(C[C@@H](N)CCC=C(C)C)OCCO1)O[Si](C(C)C)(C(C)C)C(C)C	inactive: 17.5 µM
COc1cc(/C=C/C(=O)c2ccc(NS(=O)(=O)c3cc([N+](=O)[O-])ccc3C)cc2)cc(OC)c1OC	inactive: 5.26 µM
COC(=O)CCC1=CCC2(SC)C(=O)Nc3cccc1c32 (centres undefined)	inactive: > 100 µM
O=C1C=Cc2c(Br)sc(Br)c21	inactive: 24.9 µM
CC(Oc1ccc(OCC2CCCCC2)cc1)C(=O)O (centres undefined)	inactive: > 100 µM
Cc1cc(Cl)ccc1NC(=O)/C(Cl)=C(/Cl)C(=O)O	active: 0.0444 µM
COCCN(C(=O)c1ccccc1)C1CCC2(SCCS2)c2[nH]c3ccccc3c21 (centres undefined)	inactive: 97.7 µM
Cc1ccccc1C(=O)N/N=C/c1ccc(Sc2nccn2C)c([N+](=O)[O-])c1	inactive: > 100 µM
CC(C(=O)c1ccccc1)C1(O)C(=O)Nc2ccc(Cl)cc21 (centres undefined)	inactive: > 100 µM
CC(C)c1nc(Cl)nc(Cl)c1Cl	active: 0.931 µM
O=[N+]([O-])c1cccc2nccc(NCCN3CCOCC3)c12	inactive: 10.4 µM
Cc1cc(S(=O)(=O)Nc2nc(-c3ccccn3)n[nH]2)c(S)cc1Cl	inactive: 10.5 µM
CC(=O)OCc1ccc2oc(=O)c(C(=O)Oc3cccc(Cl)c3)cc2c1	inactive: 22.2 µM
COc1cccc(/C=N/NC(N)=O)c1O	inactive: > 100 µM
C=C(CN1CC2C[C@](C(=O)OC)(c3cc4ccccc4[nH]3)C1C(OC)C2OC)S(=O)(=O)c1ccccc1 (some centres undefined)	inactive: 3.8 µM
CCN(CC)CCNc1ccc(/N=N/c2ccc(S(N)(=O)=O)cc2)c2ccccc12	inactive: 17.9 µM
O=Cc1ccc(-c2cccs2)s1	inactive: > 100 µM
Cc1[nH]n(-c2ncc(C(=O)O)c(=O)[nH]2)c(=O)c1CCO	inactive: > 97.3 µM
O=C1c2cccnc2-c2nccc3ccnc1c23	inactive: 10.3 µM
Nc1ncnc2c1ncn2[C@@H]1O[C@H](COP(=O)(O)O)[C@@H](O)[C@@H]1O	inactive: > 50 µM

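Results reflect a 48-hour exposure of cells in 96-well plates to compound at five concentrations. GI50 = concentration required for 50% inhibition of growth.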 Calls of active or inactive are those of the source. Rule as the data show it: active = GI50 up to about 1.1 µM and inactive = higher.
